According to the supplement of paper PMC9938546:
Structures can show the parent of a compound that is named as a salt. Some of the results follow. Most values come without repeats; read them as rough.

System: HCT116-GFP
Assay: HCT116-GFP viability (GFP intensity) relative to untreated control, monoculture; higher = less cancer cell killing
Conditions: culture: HCT116-GFP monoculture; 10 µM; 72 h
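Also: viability estimated indirectly by image-based GFP quantification with live-cell imaging of the constitutively GFP-expressing human colorectal cancer line, no immune cells added.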

SMILES	HCT116-GFP viability
CC(=O)N[C@@H](CS)C(=O)O [Acetylcysteine]	84.9%
CC(=O)O[C@H]1C[C@@]2(C)[C@@H](C[C@@H](O)[C@H]3[C@@]4(C)CC[C@@H](O)[C@@H](C)[C@@H]4CC[C@@]32C)/C1=C(\CCC=C(C)C)C(=O)O [Fusidic acid sodium salt]	92.3%
CN(C)CCn1nnnc1SCC1=C(C(=O)O)N2C(=O)[C@@H](NC(=O)Cc3csc(N)n3)[C@H]2SC1 [Cefotiam hydrochloride]	94.5%
C[C@@H]1C[C@H]2[C@@H]3C[C@H](F)C4=CC(=O)C=C[C@]4(C)[C@@]3(Cl)[C@@H](O)C[C@]2(C)[C@H]1C(=O)COC(=O)C(C)(C)C [Clocortolone pivalate]	85.3%
OC(c1cc(C(F)(F)F)nc2c(C(F)(F)F)cccc12)C1CCCCN1 (stereo not drawn) [Mefloquine hydrochloride]	17.5%
CNCCCC12CCC(c3ccccc31)c1ccccc12 [Maprotiline hydrochloride]	80%
CC1(C)O[C@@H]2C[C@H]3[C@@H]4CCC5=CC(=O)CC[C@]5(C)[C@@]4(F)[C@@H](O)C[C@]3(C)[C@]2(C(=O)CCl)O1 [Halcinonide]	121%
C[C@]12C=CC(=O)C=C1CC[C@H]1[C@@H]3C[C@@H](O)[C@](O)(C(=O)CO)[C@@]3(C)C[C@H](O)[C@@]12F [Triamcinolone]	123%
CCN(CC)C(=O)/C(C#N)=C/c1cc(O)c(O)c([N+](=O)[O-])c1 [Entacapone]	105%
C[C@@H](O)[C@H]1C(=O)N2C(C(=O)O)=C(S[C@@H]3CN[C@H](C(=O)N(C)C)C3)[C@H](C)[C@H]12 [Meropenem]	106%
CC(=O)O[C@H]1C[C@@H]2CC[C@@H]3[C@H](CC[C@@]4(C)[C@H]3C[C@H]([N+]3(C)CCCCC3)[C@@H]4OC(C)=O)[C@@]2(C)C[C@@H]1N1CCCCC1 [Vecuronium bromide]	96.7%
CC(C)NC[C@H](O)COc1cccc2ccccc12 [(S)-propranolol hydrochloride]	118%
CN(C/C=C/c1ccccc1)Cc1cccc2ccccc12 [Naftifine hydrochloride]	84.8%
CN1C(=O)OC(C)(C)C1=O [Trimethadione]	100%
CC(=O)CCCCn1c(=O)c2c(ncn2C)n(C)c1=O [Pentoxifylline]	88.6%
OCCN1CCN(CCCN2c3ccccc3C=Cc3ccccc32)CC1 [Opipramol dihydrochloride]	98.1%
Cc1onc(-c2c(F)cccc2Cl)c1C(=O)N[C@@H]1C(=O)N2[C@@H]1SC(C)(C)[C@@H]2C(=O)O [Flucloxacillin sodium]	110%
C[C@H](Cc1cc2c(c(C(N)=O)c1)N(CCCO)CC2)NCCOc1ccccc1OCC(F)(F)F [Silodosin]	92.1%
CN(C)CCCSC(=N)N [Dimaprit dihydrochloride]	97.5%
O=C(NCCN1CCOCC1)c1ccc(Cl)cc1 [Moclobemide]	95.6%
CCCCCNC(=N)N/N=C/c1c[nH]c2ccc(OC)cc12 [Tegaserod maleate]	0.346%
NS(=O)(=O)c1cc(Cl)c(Cl)c(S(N)(=O)=O)c1 [Dichlorphenamide]	123%
CCN1CCCC(OC(=O)C(c2ccccc2)c2ccccc2)C1 (stereo not drawn) [Piperidolate hydrochloride]	110%
O=C(O)c1ccccc1OP(=O)(O)O [Fosfosal]	89.3%
C/C=C(/C(=C/C)c1ccc(O)cc1)c1ccc(O)cc1 [Dienestrol]	103%

SMILES	HCT116-GFP viability
Cc1ncc([N+](=O)[O-])n1CC(C)O (stereo not drawn) [Secnidazole]	98.7%
COc1ccc2cc([C@H](C)C(=O)O)ccc2c1 [Naproxen]	92.3%
Nc1cc(N2CCCCC2)nc(N)[n+]1[O-] [Minoxidil]	94.2%
CC1(C)S[C@@H]2[C@H](NC(=O)[C@H](N)c3ccccc3)C(=O)N2[C@H]1C(=O)O [Ampicillin trihydrate]	103%
O=c1n(CCCN2CCN(c3cccc(Cl)c3)CC2)nc2ccccn12 [Trazodone hydrochloride]	92%
NC(=O)c1cnccn1 [Pyrazinamide]	102%
Cc1nc2ccccn2c(=O)c1CCN1CCC(C(=O)c2ccc(F)cc2)CC1 [Pirenperone]	106%
CSc1nc2cc(Cl)c(Oc3cccc(Cl)c3Cl)cc2[nH]1 [Triclabendazole]	88.1%
O=C(CCNNC(=O)c1ccncc1)NCc1ccccc1 [Nialamide]	98.3%
N/C(=N\C(=O)c1nc(Cl)c(N)nc1N)NCc1ccccc1 [Benzamil hydrochloride]	88.8%
CCCN(CCC)CCc1cccc2c1CC(=O)N2 [Ropinirole hydrochloride]	95.2%
COc1cccc2c1C(=O)c1c(O)c3c(c(O)c1C2=O)C[C@@](O)(C(=O)CO)C[C@@H]3O[C@H]1C[C@H](N)[C@@H](O)[C@H](C)O1 [Epirubicin hydrochloride]	5.52%
CC(=O)O[C@H]1C(=O)[C@@]2(C)[C@H]([C@H](OC(=O)c3ccccc3)[C@]3(O)C[C@H](OC(=O)[C@H](O)[C@@H](NC(=O)c4ccccc4)c4ccccc4)C(C)=C1C3(C)C)[C@]1(OC(C)=O)CO[C@@H]1C[C@@H]2O [Paclitaxel]	21.3%
CC(N)CCCC(C)(C)O (stereo not drawn) [Heptaminol hydrochloride]	113%
CN1CCCN=C1/C=C/c1cccc(O)c1 [Oxantel pamoate]	98.5%
C[C@@H](O[C@H]1OCCN(Cc2n[nH]c(=O)[nH]2)[C@H]1c1ccc(F)cc1)c1cc(C(F)(F)F)cc(C(F)(F)F)c1 [Aprepitant]	63.6%
CC=CC1=C(C(=O)O)N2C(=O)[C@@H](NC(=O)[C@H](N)c3ccc(O)cc3)[C@H]2SC1 [Cefprozil]	106%
Cc1cc2c(s1)Nc1ccccc1N=C2N1CCN(C)CC1 [Olanzapine]	97.1%
CC(C)OC(=O)C(C)(C)Oc1ccc(C(=O)c2ccc(Cl)cc2)cc1 [Fenofibrate]	85%
Cc1c(O)c(=O)n(-c2ccccc2)n1C [Antipyrine, 4-hydroxy]	103%
Nc1ncnc2c1ncn2C1OC(COP(=O)(O)O)C(O)C1O (stereo not drawn) [Adenosine 5'-monophosphate monohydrate]	98.4%
CCOc1ccc2nc(S(N)(=O)=O)sc2c1 [Ethoxzolamide]	90.3%
C[C@@H]1C[C@H]2[C@@H]3CCC4=CC(=O)C=C[C@]4(C)[C@@]3(Cl)[C@@H](O)C[C@]2(C)[C@@]1(OC(=O)c1ccco1)C(=O)CCl [Mometasone furoate]	63.8%
CN1CCCN(C(c2ccccc2)c2ccc(Cl)cc2)CC1 (stereo not drawn) [Homochlorcyclizine dihydrochloride]	93.4%
CCCCc1ccc2[nH]c(NC(=O)OC)nc2c1 [Parbendazole]	9.91%

SMILES	HCT116-GFP viability
C/C(=C\C(=O)OCCCCCCCCC(=O)O)C[C@@H]1OC[C@H](C[C@@H]2O[C@H]2[C@@H](C)[C@H](C)O)[C@@H](O)[C@H]1O [Mupirocin]	110%
CN/C(=N\CCSCc1nc[nH]c1C)NC#N [Cimetidine]	102%
CCc1cccc(CC)c1NC(=O)CN(CC(=O)O)CC(=O)O [Etifenin]	105%
O=C(O)c1cc(/N=N/c2ccc(S(=O)(=O)Nc3ccccn3)cc2)ccc1O [Sulfasalazine]	96.7%
CN1CCN(C(c2ccccc2)c2ccccc2)CC1 [Cyclizine hydrochloride]	102%
OCCN(CCO)c1nc(N2CCCCC2)c2nc(N(CCO)CCO)nc(N3CCCCC3)c2n1 [Dipyridamole]	79.7%
O=C(O)c1ccccc1C(=O)Nc1ccc(S(=O)(=O)Nc2nccs2)cc1 [Phthalylsulfathiazole]	94.8%
CN(c1nccc(=O)[nH]1)C1CCN(c2nc3ccccc3n2Cc2ccc(F)cc2)CC1 [Mizolastine]	96.3%
NC[C@@H]1O[C@@H](O[C@H]2[C@H](O)[C@@H](O[C@H]3O[C@H](CO)[C@@H](O)[C@H](N)[C@H]3O)[C@H](N)C[C@@H]2N)[C@@H](O)[C@H](O)[C@H]1O [Kanamycin A sulfate]	94.7%
CC1CC(OC(=O)c2ccccc2O)CC(C)(C)C1 (stereo not drawn) [Homosalate]	81%
COC(=O)C1=C(C#N)NC(C)=C(C(=O)OC(C)C)C1c1cccc([N+](=O)[O-])c1 (stereo not drawn) [Nilvadipine]	121%
C#C[C@]1(O)CC[C@H]2[C@@H]3CCC4=CCCC[C@@H]4[C@H]3CC[C@@]21C [Lynestrenol]	97.6%
C[C@H](CCC(=O)O)[C@H]1CC[C@H]2[C@@H]3[C@@H](O)C[C@@H]4C[C@H](O)CC[C@]4(C)[C@H]3CC[C@]12C [Urosiol]	110%
O=C(CCCN1CCN(c2ccccn2)CC1)c1ccc(F)cc1 [Azaperone]	22%
CN1CCC(=C2c3ccccc3Sc3ccccc32)CC1 [Pimethixene maleate]	83.8%
Nc1c2ccccc2nc2ccccc12 [Aminacrine]	5.65%
N[C@@H](Cc1cc(I)c(Oc2ccc(O)c(I)c2)c(I)c1)C(=O)O [Liothyronine]	93.8%
CS(=O)(=O)OCCCCOS(C)(=O)=O [Busulfan]	106%
Cc1c(NC(=O)c2cccnc2)c(=O)n(-c2ccccc2)n1C [Nifenazone]	101%
CC(C)NC[C@@H](O)COc1ccc(CC(N)=O)cc1 [(R)-(+)-Atenolol]	103%
NS(=O)(=O)c1cc2c(cc1C(F)(F)F)NCNS2(=O)=O [Hydroflumethiazide]	93.6%
CC[C@@H]1C(=O)OC[C@@H]1Cc1cncn1C [Pilocarpine nitrate]	101%
CO[C@@H]1[C@@H](O[C@@H]2O[C@H](C)[C@@H](O[C@H]3C[C@@](C)(O)[C@@H](OC(=O)CC(C)C)[C@H](C)O3)[C@H](N(C)C)[C@H]2O)[C@@H](CC=O)C[C@@H](C)[C@@H](O)/C=C/C=C/C[C@@H](C)OC(=O)C[C@H]1OC(C)=O [Josamycin]	80.5%
